Test results from PubChem BioAssay AID1240 (Sanford-Burnham Center for Chemical Genomics, 2008).
The whole screen tested about 50,000 compounds, of which about 800 (1.6%) showed an effect of 50% or more. The list shows a part of the results.

What follows are compounds tested against Bcl-2-like protein 10 (Homo sapiens) (UniProt Q9HD36) (assay: Phenotype converters, Bcl-B/TR3 peptide binding displacement, primary biochemical FP (AID 1240;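 also: 0% = Bcl-B with tracer peptide and DMSO and 100% = tracer peptide lacking Bcl-B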)). Settings: GST-Bcl-B / FITC-TR3 peptide fluorescence polarization; stronger effect = higher value; compound at 3.75 mg/L.
Sequence of UniProt Q9HD36 (Q9HD36 whole entry, looked up): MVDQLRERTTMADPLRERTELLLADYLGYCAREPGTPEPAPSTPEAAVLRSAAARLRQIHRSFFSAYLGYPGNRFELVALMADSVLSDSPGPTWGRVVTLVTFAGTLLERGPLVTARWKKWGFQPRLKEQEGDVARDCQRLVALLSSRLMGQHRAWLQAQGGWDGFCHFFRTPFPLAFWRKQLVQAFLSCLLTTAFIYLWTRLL

SMILES | displacement
CN1C(=O)/C(=C/c2c(Cl)cccc2Cl)SC1=S | 18.4%
CCOc1ccc(N2C(=O)c3ccccc3NC2c2ccc(Br)cc2)cc1 (stereo not given) | 6.5%
CS(=O)(=O)N1CCN(c2ccc([N+](=O)[O-])c(Sc3cccc4cccnc34)c2)CC1 | 5.9%
CCOC(=O)C(C(C)=O)C1=C(c2ccc([N+](=O)[O-])cc2)C(=O)c2ccccc2C1=O (stereo not given) | -21%
CCOC(=O)C1=NNC2C(=O)N(c3ccc(Cl)cc3Cl)C(=O)C12 (stereo not given) | 2.3%
COc1ccc(OC)c(/C=C2\SC(N3CCCCCC3)=NC2=O)c1 | -9.2%
Cc1ccc(/C=N/NC(=O)C2CC(=O)N(c3ccc(Cl)cc3)C2)cc1 (stereo not given) | -6.2%
C=CCSc1nc(N)c2c3c(sc2n1)CCCC3 | -8%
Cc1ccc(N2C(=O)S/C(=C/c3ccc4c(c3)OCO4)C2=O)cc1 | 13.8%
CCC1=NN(C(=O)c2cccc(Br)c2)C(O)(c2ccc(C)cc2)C1 (stereo not given) | 6.7%
O=C(Oc1ccc(/C=c2/sc3nc4ccccc4n3c2=O)cc1)c1ccc(Br)cc1 | -7.2%
COc1ccc2c(c1)OCC/C2=N\OC(=O)c1cccc2ccccc12 | -11.3%
COc1ccc(CN(C(=O)c2cccc(F)c2)C2CC(=O)N(c3ccccc3)C2=O)cc1 (stereo not given) | -8%
COc1cc(/C=C2/SC(=Nc3ccccc3Cl)NC2=O)ccc1OC(=O)c1ccccc1 | -16%
O=C(Nc1ccc2oc(-c3ccc(F)cc3)nc2c1)c1ccccc1I | -4.8%
NC(=O)C1CCN(S(=O)(=O)c2ccc3ccccc3c2)CC1 | -3.2%
Cc1ccc(S(=O)(=O)Nc2ccccc2C(F)(F)F)cc1 | 7.8%
N=c1sc(Cc2cccc(Cl)c2)cn1CC(=O)c1ccc(F)cc1 | 8.7%
O=C1/C(=C\c2cccc(O)c2)SC(=S)N1c1ccc(F)cc1 | 2.4%
CC1(C)Cc2c(sc(/N=C/N3CCCCCC3)c2C#N)C(C)(C)N1 | -8%
CC(=O)c1ccc(NC(=S)NC(NC(=O)c2ccc(Br)cc2)C(Cl)(Cl)Cl)cc1 (stereo not given) | 11.2%
Cc1ccc(C2SCC(=O)N2CCCN(C)C)cc1 (stereo not given) | -2.1%
CCOCCOC(=O)c1ccc(NC(=O)c2cc3ccccc3o2)cc1 | -5.2%
COC(=O)C1=C(C)NC(=O)CC1c1ccccc1 (stereo not given) | 3%
O=C(Nc1ccccn1)c1sc2cc([N+](=O)[O-])ccc2c1Cl | 13.1%
CCc1cc(C)cc(OCCOc2ccc(/C=c3\sc4nc5ccccc5n4c3=O)cc2)c1 | 13.4%
CC1(C)CC(=O)C2=C(C1)OC1=C(C(=O)CC(C)(C)C1)C2c1ccc(-c2nnc(N)s2)cc1 | -3.3%

SMILES | displacement
O=[N+]([O-])c1cccc(-n2cccc2/C=N/Nc2nc(N3CCOCC3)nc(N3CCOCC3)n2)c1 | 5.9%
COc1ccc(OCCNC(=S)Nc2cccc3ccccc23)cc1 | -4.5%
O=[N+]([O-])c1cc(Cl)ccc1NCCNS(=O)(=O)c1ccc(Cl)cc1 | 9.5%
N#C/C(=C\c1cccc(O)c1)C(=O)Nc1ccc(F)cc1 | -6%
CCC(=O)N1c2ccccc2NC2=C(C(=O)CC(c3ccccc3)C2)C1c1ccc(C)o1 (stereo not given) | -5.3%
Cc1ccc2nc(NC(=O)c3ccccc3)sc2c1 | -5.2%
O=C(O)c1ccc(S(=O)(=O)c2ccc3c(c2)C(=O)N(c2cccc(C(F)(F)F)c2)C3=O)cc1 | 8.5%
O=C(CCc1ccccc1)Nc1ccccc1F | 14%
CC(=O)c1cccc(NC(=O)c2cc(Cl)ccc2[N+](=O)[O-])c1 | 29.5%
CC(O)C(=O)NS(=O)(=O)c1ccc(C(C)C)cc1 (stereo not given) | 5.3%
CCOC(=O)c1c(NC(=O)c2ccccc2)sc2c1CCN(Cc1ccccc1)C2 | 12%
CC(=O)Oc1ccc2c(C)cc(=O)oc2c1C | -10.7%
CC(=O)NN1C(=O)/C(=C\c2ccc(C)cc2)SC1=S | 36%
CC(=O)Nc1ccc(NC(=O)/C=C/C(=O)O)cc1Cl | -5.8%
O=C(CSCc1cccc(Br)c1)NCCc1ccc(Cl)cc1 | 2.2%
CCOC(=O)Cc1csc(NC(=O)COc2cccc(Cl)c2)n1 | 0.6%
Clc1ccc(-c2ccc(/C=N\n3cnnc3)o2)c(Cl)c1 | 12.6%
Cc1cccc(-c2cc(NC(=O)COc3ccc(Cl)cc3Cl)n[nH]2)c1 | 11.5%
CCc1c(C)[nH]n(-c2nc(-c3cccc([N+](=O)[O-])c3)cs2)c1=O | 10.5%
Cc1cc2oc(=O)cc(C)c2cc1NC(=O)COc1ccccc1C | 7.7%
COc1ccc(CCNC(=O)Nc2ccccc2Cl)cc1OC | -6%
CCOC(=O)c1ccc(-c2ccc(/C=N/O)o2)cc1 | -7.5%
COc1cccc(C(=O)Nc2ccc(Br)cn2)c1 | 12.9%
CC(C)c1ccc(NC(=O)c2cccc(Cl)c2)cc1 | -13.9%
NC(=O)c1ccc(NC(=O)c2cc(-c3ccc(Cl)c(Cl)c3)nc3ccccc23)cc1 | 3.5%
CCOc1cc(C=C2C(=O)NC(=S)NC2=O)ccc1OCCOc1ccc(C(C)(C)C)cc1 | -7.2%
COc1cc(CN2CCN(S(=O)(=O)c3ccc(C)cc3)CC2)cc(OC)c1OC | 9%

SMILES | displacement
O=C(O)c1ccccc1SC1CC(=O)N(Cc2ccccc2)C1=O (stereo not given) | 5%
Cc1ccc(/C=C/C(=O)c2c3c(c(C)[nH]c2=O)CCCC3)cc1 | 49.3%
C/C(=N\NS(=O)(=O)c1ccccc1)c1cccc(I)c1 | 8.4%
COc1ccccc1NC(=O)C1=C(C)NC(=O)NC1c1cccc([N+](=O)[O-])c1 (stereo not given) | -7.1%
COc1ccc(-c2cc(C(F)(F)F)n3nc(C(=O)NCc4ccccc4)cc3n2)cc1 | 4.2%
Cc1cc(C)nc(NS(=O)(=O)c2ccc(NC(=S)Nc3ccccc3)cc2)n1 | -4.6%
Cc1cc([N+](=O)[O-])ccc1NC(=O)COc1ccc(Cl)cc1 | 1.1%
O=C(Nc1nc2ccc3ccccc3c2s1)c1ccc(Cl)s1 | -7.2%
O=C(c1ccccc1)N1CCN(C2CC3CCC2C3)CC1 (stereo not given) | 1.7%
Cc1c(C(=O)Nc2ccc3c(c2)OCCO3)cccc1[N+](=O)[O-] | 0.9%
Cc1ccc2occ(C(=O)c3ccco3)c(=O)c2c1 | 1.2%
CCOC(=O)/C(N=Nc1cc(C(=O)OC)cc(C(=O)OC)c1)=C(/C)O | 1.7%
COc1ccc(OC)c(NC(=O)CN(c2cc(C)cc(C)c2)S(=O)(=O)c2ccccc2)c1 | -17.3%
C=CCn1c(NC(=O)c2cccs2)c(C(=O)OCC)sc1=S | -3.1%
COc1ccccc1NC(=O)c1c(NC(=O)C(C)(C)C)sc2c1CCC(C)C2 (stereo not given) | -8.4%
COc1cc(-c2noc(-c3ccccc3Cl)n2)cc(OC)c1OC | 9.5%
Cc1ccccc1CNS(=O)(=O)c1ccccc1 | -3.2%
COc1ccc(C(NC(=O)c2ccccc2OC)c2ccc(OC)cc2)cc1 | -5%
Cc1nc2cc(N=Cc3ccc(Br)cc3)ccc2n1C | -0.5%
Cc1ccc(S(=O)(=O)Nc2ccc(NC(=O)c3sc4cc(C)ccc4c3Cl)cc2)cc1 | 8.2%
COc1cc2c(cc1NC(=O)c1ccccc1Br)oc1ccccc12 | -2.8%
COc1ccc(CC(=O)NCCCN(C)C)cc1 | -1.5%
Cc1c(N2C(=O)/C(=C/c3ccc(OC(=O)c4cccc([N+](=O)[O-])c4)cc3)SC2=S)c(=O)n(-c2ccccc2)n1C | 13.6%
O=C1ON=C(c2ccccc2)/C1=C\c1ccccc1OCc1ccc(F)cc1 | -20.5%
CCN1C(=O)/C(=C2\SC(=S)N(CC(=O)O)C2=O)c2ccccc21 | -4.4%
CCCCCCCc1nc2ccccc2[nH]1 | 13%
O=C(O)c1cc(-c2ccc(/C=N/Nc3ccc([N+](=O)[O-])cn3)o2)ccc1Cl | -10.6%

SMILES | displacement
CCOC(=O)c1sc(NC(=O)c2ccc(Cl)c(Cl)c2)nc1C | -9%
CC(=O)CC(=O)Nc1ccc(Cl)c([N+](=O)[O-])c1 | 2.1%
NC1=NC(=O)C(CC(=O)Nc2ccccc2[N+](=O)[O-])S1 (stereo not given) | -8.3%
C=CCOc1ccc(/C=C2\C(=O)NC(=S)N(c3ccc(Cl)cc3)C2=O)cc1OC | 3.6%
CC(=O)Nc1ccc2c(c1)C1C=CCC1C(c1ccccc1F)N2 (stereo not given) | 6.2%
COc1cc(NS(=O)(=O)c2ccc([N+](=O)[O-])cc2)cc(OC)c1 | 2.5%
CSc1nnc2c(n1)OC(c1cccc([N+](=O)[O-])c1)Nc1ccccc1-2 (stereo not given) | 1.2%
CCCCOc1ccccc1C1Nc2ccccc2NC2=C1C(=O)CC(c1ccc(OC)c(OC)c1)C2 (stereo not given) | 0.6%
COc1cc(Br)c(C2C(C(=O)OCCOc3ccccc3)=C(C)NC3=C2C(=O)CC(C)(C)C3)cc1OC (stereo not given) | -24.3%
CCNC(=O)CN(c1cccc(Cl)c1)S(=O)(=O)c1ccccc1 | 1%
COC(=O)c1c(C)oc2ccc(OCc3ccc(F)cc3)cc12 | 12.1%
COC(=O)c1ccc(C(C2C(=O)CC(C)(C)CC2=O)C2C(=O)CC(C)(C)CC2=O)cc1 | -7.6%
COc1ccccc1NC(=O)COc1ccc(C=C2C(=O)NC(=O)NC2=O)cc1 | 4.7%
Cc1ccc(C(=O)Nc2cccc(-c3nc4ccccc4o3)c2C)cc1 | 13.7%
O=C(CCC1CCCC1)Nc1ccc(F)c([N+](=O)[O-])c1 | -6.6%
COc1ccc(CC(=O)N2CCN(C(=O)Cc3ccc(OC)cc3)CC2)cc1 | 0.3%
Cc1ccc(S(=O)(=O)NN2C(=O)/C(=C/c3ccc(C(=O)O)cc3)SC2=S)cc1 | 14%
O=C(/C=C/c1ccccc1)NC(=S)Nc1ccc(N2CCOCC2)c(Cl)c1 | -1.3%
O=[N+]([O-])c1cc(Cl)ccc1NCCCNS(=O)(=O)Cc1ccccc1 | 8.4%
COc1cc(/C=C2/S/C(=N/S(=O)(=O)c3ccccc3)NC2=O)c([N+](=O)[O-])cc1OC | 7.6%
O=C1NC(=O)N(c2ccc(Cl)cc2)C(=O)/C1=C/c1cc(I)c(O)c([N+](=O)[O-])c1 | 7.4%
COc1cc([N+](=O)[O-])ccc1NC(=O)CSc1nc2ccccc2s1 | 8.5%
CCCOc1ccc(C=Nc2ccc(Nc3ccccc3)cc2)cc1OC | 31%
CCN(CC)CCN1C(=O)C2C3c4ccccc4C(c4ccccc43)C2C1=O (stereo not given) | 6.4%
